The values below come from the antibiotic and cytotoxicity screens of Wong et al. (2023).

This is one part of the list.

In the assay the test system is HSkMC (human skeletal muscle cells). Kind of assay: cytotoxicity call (relative viability < 0.9). As to conditions: 10 µM.
With `CN(C)CCCNC(=O)C[C@H]1CC[C@@H]2[C@H](COc3ccc(NC(=O)c4ccc5c(c4)OCO5)cc3C(=O)N2C)O1`, the cytotoxicity call is “inactive”.
The entry for `Cl.OC(CNCC(O)C1CCc2cc(F)ccc2O1)C1CCc2cc(F)ccc2O1` (configuration not stated) is “inactive”.
The entry for `CC1(C)CC(Nc2ccc(Nc3ccccc3)cc2)CC(C)(C)N1` is “inactive”.
As for `O=C(C[C@@H]1C[C@@H]2c3cc(NC(=O)NC4CCCC4)ccc3O[C@@H]2[C@H](CO)O1)NCc1ccc(Oc2ccccc2)cc1`, the entry is “inactive”.
As for `O=C(NC[C@H]1CCCO1)c1ccc[nH]1`, the cytotoxicity call is “inactive”.
The entry for `C[C@@H]1CCCCO[C@@H](CN(C)S(=O)(=O)c2ccccc2)[C@@H](C)CN([C@H](C)CO)C(=O)c2cc(NC(=O)NC3CCCCC3)ccc2O1` is “inactive”; for `Cc1cc(-c2ccc(N=Nc3ccc4c(S(=O)(=O)[O-])cc(S(=O)(=O)[O-])c(N)c4c3O)c(C)c2)ccc1N=Nc1ccc2c(S(=O)(=O)[O-])cc(S(=O)(=O)[O-])c(N)c2c1O.[Na+].[Na+].[Na+].[Na+]` it is “active”; for `COCc1cc(C)nc2n[nH]c(N)c12` it is “inactive”.
The entry for `C[C@@H]1CN([C@@H](C)CO)C(=O)c2cc(NC(=O)Nc3ccccc3)ccc2O[C@@H](C)CCCCO[C@@H]1CN(C)C(=O)Nc1cccc2ccccc12` is “inactive”.
As for `CCCNC(=O)N1C[C@]2(CCN(CC2)S(=O)(=O)c2ccc(cc2)OC)c2c(n(c3cc(ccc23)OC)C)[C@@H]1CO`, the entry is “inactive”; as for `Cc1ccc(-c2cnc3c(c2)C(=O)N([C@H](C)CO)C[C@@H](C)[C@H](CN(C)C(=O)Cc2cccnc2)O3)cc1`, “inactive”; as for `C[C@@H]1CN([C@H](C)CO)C(=O)c2cc(NC(=O)CCN3CCOCC3)ccc2O[C@@H]1CN(C)S(=O)(=O)c1ccc(Cl)cc1`, “inactive”.
